Our source for the z-score values is PubChem BioAssay AID488969 (Vanderbilt High Throughput Screening Facility, 2010).

Structures are written as SMILES. In all, about 110,000 compounds were measured (“z-score”: median about -0.1, highest 2% from about 2 on). The list shows a part of the results. Active and inactive are the calls of the source.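 How the source made its calls: active means z-score in the third read window above 3 or below -3; inactive means the rest.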

The target of the assay is Metabotropic glutamate receptor 8 (Rattus norvegicus) (UniProt P70579). Kind of assay: mGluR8 Gi/Go-coupled signaling modulation – cell-based, rat, thallium flux, HTS, primary screen (AID 488969). To be noted: HEK293 rat mGluR8, GIRK (G protein-gated inwardly rectifying potassium channel) thallium flux, FluoZin2; at 10 µM; stronger effect = higher value; submaximal glutamate (EC20) added with thallium.
UniProt P70579, sequence (P70579 whole entry, looked up): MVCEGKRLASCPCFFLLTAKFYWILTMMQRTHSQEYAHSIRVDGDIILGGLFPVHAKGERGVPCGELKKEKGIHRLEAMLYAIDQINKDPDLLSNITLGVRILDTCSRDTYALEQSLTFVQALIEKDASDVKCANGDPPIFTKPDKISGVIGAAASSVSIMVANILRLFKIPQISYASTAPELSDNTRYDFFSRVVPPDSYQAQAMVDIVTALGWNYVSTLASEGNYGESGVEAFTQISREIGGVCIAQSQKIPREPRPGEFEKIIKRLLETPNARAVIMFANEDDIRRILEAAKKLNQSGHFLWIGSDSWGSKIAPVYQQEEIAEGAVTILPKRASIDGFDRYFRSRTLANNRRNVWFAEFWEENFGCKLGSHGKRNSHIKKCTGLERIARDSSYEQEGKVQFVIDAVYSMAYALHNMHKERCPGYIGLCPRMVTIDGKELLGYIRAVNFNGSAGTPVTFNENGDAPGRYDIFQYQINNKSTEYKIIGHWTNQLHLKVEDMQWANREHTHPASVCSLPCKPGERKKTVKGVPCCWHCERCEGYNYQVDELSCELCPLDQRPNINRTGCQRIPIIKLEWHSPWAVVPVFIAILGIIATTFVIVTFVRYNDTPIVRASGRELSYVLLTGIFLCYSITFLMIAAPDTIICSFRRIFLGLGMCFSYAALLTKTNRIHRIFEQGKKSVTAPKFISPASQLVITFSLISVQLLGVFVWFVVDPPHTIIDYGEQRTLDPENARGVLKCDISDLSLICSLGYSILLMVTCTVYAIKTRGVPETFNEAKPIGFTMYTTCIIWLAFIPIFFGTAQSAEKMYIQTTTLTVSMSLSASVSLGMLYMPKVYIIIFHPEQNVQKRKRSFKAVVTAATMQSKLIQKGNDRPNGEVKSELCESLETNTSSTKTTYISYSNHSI
The compound `CC(C)Oc1ccc(C(=O)NCc2cccnc2)cc1` registered a z-score of 0.59.

The compound `CCOC(=O)C1C(=O)NC(N2CCc3ccccc32)=NC1c1ccccc1` (stereo not drawn) returned a z-score of 0.134.

In turn, `O=C(Nc1ccccc1F)C(=Cc1sc(N2CCOCC2)nc1-c1ccccc1)C(=O)Nc1ccccc1F` displayed a z-score of -0.297.

The compound `CN(CCO)C1=CC(=O)CC(C)(C)C1` showed a z-score of -0.41.

`Cc1ccccc1C(=O)NC1CCS(=O)(=O)C1` (stereo not drawn) gave a z-score of 0.0176.

`O=C(c1cccc(S(=O)(=O)NCc2ccccc2)c1)N1CCN(Cc2ccccc2)CC1` displayed a z-score of -0.219.

Compound `CC(Sc1nc2ccccc2s1)C(=O)NCc1ccc2c(c1)OCO2` (stereo not drawn) registered a z-score of -0.205.

On to `Nc1[nH]n2c(=O)c3c(nc2c1N=Nc1ccc(Cl)cc1)CCCC3`, for which the z-score is -1.09.

`CCOC(=O)CN1Cc2cccc(C(=O)O)c2C1=O`: the z-score was -0.00379.

In turn, `Cc1ccc2c(c1)C1CN(C)CCC1N2C(=O)c1ccccc1NS(=O)(=O)c1cccc(C(F)(F)F)c1` (stereo not drawn) returned a z-score of -0.21.

With `CCCCSc1n[nH]c(N)n1`, the z-score is -0.247.

In turn, `Cc1cc(C(N)=O)c2cc(Br)ccc2n1` registered a z-score of -0.184.

As for `CCCCc1nnc(NC(=O)CC(=O)Nc2ccccc2C(=O)O)s1`, the z-score was -0.431.

As to `COC(=O)c1ccc(OC)c(CSc2nnc(COc3ccc(Cl)cc3)o2)c1`, the z-score was 0.11.

`CCCCN(CC)C(=O)Cn1c(=O)sc2ccccc21` returned a z-score of -0.255.

Consider `C[C@H](NC(=O)Nc1ccccc1F)C(=O)O`, for which the z-score was -0.255.

Consider `COc1ccccc1NC(=O)CCSCCC(=O)Nc1ccccc1OC`, for which the z-score was -0.305.

In the case of `CCCCC(=O)OCC(=O)c1ccc(OCC)cc1`, the z-score worked out at 0.0645.

`N/C(=N\OC(=O)COc1ccc(Br)cc1)c1ccncc1`: the z-score is -0.48.

Turning to `O=C(NC1CCCCC1)C(c1ccc2ncccc2c1)N(Cc1ccc(F)cc1)C(=O)c1ccc2c(c1)OCCO2` (stereo not drawn), the z-score was -0.344.

As to `Cc1ccc(O)c(NC(=S)NC(=O)CC(C)C)c1`, the z-score is -0.0996.

On to `c1ccc2cc(-c3cc4ccccn4c3)ccc2c1`, for which the z-score was -0.248.

`O=C(NCCCN1CCOCC1)c1cc(-c2ccc(Br)cc2)on1` displayed a z-score of -0.302.

Compound `CC1(C)CC(=O)C(C=NCC2CCNCC2)=C(O)C1` gave a z-score of 0.384.

Take `CCSc1nc2sc3c(c2c(=O)[nH]1)CC(C)(CC)OC3` (stereo not drawn): the z-score was -0.488.

On to `COc1c(F)c(F)c(C(=O)Nc2ccccc2N2CCN(C(=O)C(C)C)CC2)c(F)c1F`, for which the z-score was -0.545.

For the compound `N#CCCn1cc(C(CC(=O)c2ccccc2)C(=O)O)c2ccccc21` (stereo not drawn), the z-score was -0.0596.

On to `Cn1c(CNC(=O)c2ccc(Cl)c(Cl)c2)nnc1SCC(=O)Nc1sc2c(c1C#N)CCCC2`, for which the z-score is -0.526.

On to `CC(C)CCn1c(Oc2ccc(Cl)cc2)nc2c1c(=O)n(C)c(=O)n2C`, for which the z-score is -0.037.

With `CCOc1ccc(-n2c(C)cc(C(=O)NS(=O)(=O)c3ccc(C)cc3)c2C)cc1`, the z-score amounted to 0.138.

Compound `CCN(CC)C(=S)Nc1ccc(Cl)c(Cl)c1` yielded a z-score of 0.00748.

Compound `Cc1ccc2c(n1)sc1c(-c3ccccc3)c(C#N)c(N)nc12` gave a z-score of 0.104.

With `Cc1cccc2nc(=S)n(C(=O)c3ccco3)n12`, the z-score came out at 0.787.

As to `Cc1cc(NC(=O)CSc2nc3c(c(=O)n2-c2ccc(Br)cc2)SCC3)no1`, the z-score was -0.498.

In the case of `Cc1ccc(-n2[nH]c(C)c(C=Nc3cc(C)ccn3)c2=O)cc1`, the z-score was active: 10.6.

Consider `CC[n+]1c(/C=C2\C=C(C)CC(C)C2)sc2ccccc21` (stereo not drawn), for which the z-score was -0.105.

`Cc1cc(NC(=O)CSc2nc3cc(Cl)ccc3s2)no1` displayed a z-score of -0.376.

For the compound `O=C(CN(C(=O)CCC(=O)Nc1nccs1)c1ccccc1F)NCC1CCCO1` (stereo not drawn), the z-score was 0.359.

Consider `CC(C)(C)c1ccc(C(=O)NNC(=O)c2cccc(Br)c2)cc1`, for which the z-score was -0.236.

In turn, `COc1ccc(OC)c(-n2c(O)cnc2Nc2nc(C)cc(C)n2)c1` had a z-score of 1.34.

`COc1ccc(C(=O)Nc2nc(C)c(C(=O)N(C)C)s2)cc1OC` had a z-score of 0.0903.

The compound `CCOC(=O)N1CCN(C(=O)CN(c2ccc(C)cc2)S(=O)(=O)c2c(C)noc2C)CC1` gave a z-score of -0.441.

In turn, `O=C(N1CCOCC1)N1c2ccccc2CC(N2CCOCC2)c2ccccc21` (stereo not drawn) showed a z-score of 0.529.

In turn, `COC(=O)c1ccc(Cl)c(NC(=O)CN(c2ccc(OC)c(OC)c2)S(C)(=O)=O)c1` returned a z-score of 2.1.

Compound `Cc1ccc(C23CC4CC(CC(NC(=O)NCCN(C)C)(C4)C2)C3)cc1` registered a z-score of 0.295.

On to `CCOc1ccccc1CNn1nnnc1N`, for which the z-score came to 0.138.

For `O=C(CSc1nc2ccc(Cl)cc2[nH]1)NCCc1ccccc1`, the z-score is -0.304.

In the case of `Cc1cc(NCCN(C)C)n2nc(-c3cccs3)cc2n1`, the z-score came out at 0.328.

Compound `O=S(=O)(c1ccccc1)c1nc(-c2ccco2)oc1NCCCn1ccnc1` gave a z-score of -0.0983.

`COCCCN1C(=O)c2ccc(C(=O)O)cc2C1=O` came in with a z-score of 0.55.

For the compound `CC(=O)NCc1ccc(S(=O)(=O)N/N=C/c2ccc(N(C)C)cc2)cc1`, the z-score was -0.222.

On to `COc1ccc(C(=O)Cc2ccc(F)cc2)c(OC)c1`, for which the z-score was -0.203.

`CCOC(=O)c1cc2sccc2n1CC(=O)Nc1ccc2c(c1)OCCO2`: the z-score was 0.34.

Regarding `Oc1ccccc1-c1cc(C(F)(F)C(F)F)[nH]n1`, the z-score was -1.21.

Compound `CCN(CC)C(=O)C(C)N(C#N)c1nc(SC)nc(N(C)C)n1` (stereo not drawn) gave a z-score of -0.129.

Compound `Cc1ccc(Nc2nc(CSc3nnc(-c4cccnc4)n3-c3ccccc3F)cs2)cc1` returned a z-score of -0.75.

In the case of `COc1cc(OC)c(/C=N/NC(N)=S)cc1Br`, the z-score is -0.0375.

As for `CCOP(=O)(OCC)c1nc(-c2cccc3ccccc23)oc1NCCc1ccc(OC)cc1`, the z-score was -0.306.

`COc1cccc(NC(=O)C(NC2CCCC2)c2ccccc2)c1` (stereo not drawn) had a z-score of -1.01.

In turn, `CCC(=O)Nc1cccc(NC(=O)c2cc3ccccc3o2)c1` registered a z-score of -0.237.

For `COc1cc(OC)c(S(=O)(=O)Nc2ccc(C)cn2)cc1NC(C)=O`, the z-score is -0.108.

For `CC1CCN(S(=O)(=O)c2ccc(N/N=C(/C#N)C(N)=O)cc2)CC1`, the z-score was -0.0448.

`COC(=O)C1=C(C(=O)c2ccccc2)C(c2ccc(O)c(OC)c2)n2nnnc2N1` (stereo not drawn) displayed a z-score of 0.106.

Regarding `O=C(NCCC1=CCCCC1)NC12CC3CC(CC(C3)C1)C2`, the z-score was 0.498.

On to `CCOc1ccc(N2CC(=O)N(c3ccc(OCC)cc3)CC2=O)cc1`, for which the z-score is -0.298.

`O=C(O)c1ccc(CNCc2ccc(Cl)cc2)cc1` displayed a z-score of 1.77.

`N#Cc1nc(-c2ccco2)oc1NCCc1ccccc1` came in with a z-score of -1.03.

`Cc1ccc2cccc(SCC(=O)NCC#N)c2n1` gave a z-score of -0.021.

As for `c1cncc(C2Nc3ccccc3-c3nc4ccccc4n32)c1` (stereo not drawn), the z-score is -0.101.

For `COc1ccc(-c2cc(-c3cc(OC)ccc3O)[nH]n2)cc1`, the z-score is -0.827.

On to `Cc1ccc(NC(=S)NN(C)c2nc(C)cnc2C)cc1`, for which the z-score was -1.53.

As to `CC(=O)c1c(C)[nH]c(C(=O)OCC(=O)Nc2cc(S(=O)(=O)N3CCCCC3)ccc2C)c1C`, the z-score is -2.23.

As to `COC(=O)NNC(=S)Nc1cc(OC)ccc1OC`, the z-score was found to be 0.0557.

As to `CCCCn1c(N)c(N(CC(C)C)C(=O)CN(C)Cc2cccc(OC)c2)c(=O)[nH]c1=O`, the z-score is -0.111.

In turn, `NC(=O)C1CCN(C2=C(Cl)C(=O)c3ccccc3C2=O)CC1` yielded a z-score of -0.0578.

`Cc1ccc(C(C(=O)NCc2ccccc2)N(C(=O)c2csnn2)c2cccc3ccccc23)o1` (stereo not drawn): the z-score is -0.574.

As for `C/C=C/c1ccc(OCCN2C(=O)NC(C)(C)C2=O)c(OC)c1`, the z-score is -1.35.

`CCCC1NC(=O)NC(C)=C1C(=O)OCC` (stereo not drawn) had a z-score of -0.0813.

Take `CCOC(=O)c1oc2ccccc2c1NC(=O)c1cc(OC)cc(OC)c1`: the z-score is -0.262.

Regarding `CC1(C)CC(=O)C(C=NCCN2CCN(C(=S)Nc3ccccc3)CC2)=C(O)C1`, the z-score is -0.182.

Turning to `CCNC(=O)NC(=O)C(C)OC(=O)C1CCN(S(=O)(=O)c2ccccc2F)CC1` (stereo not drawn), the z-score was -0.363.

`Brc1ccc(C2C3=C(Nc4ncnn42)c2ccccc2OC3c2ccncc2)cc1` (stereo not drawn) displayed a z-score of -1.24.

The compound `Cc1ccc(Nc2nc(-c3c(C)n(C)n(-c4ccccc4)c3=O)c(C)s2)cc1` registered a z-score of -0.615.

As for `CCN1C(=O)S/C(=C/c2ccsc2)C1=O`, the z-score is 0.669.

Compound `Cc1cc(C(=O)NC(C)C)on1` yielded a z-score of 0.124.

For `Cn1c(=O)c(=O)n(C)c2cc(S(=O)(=O)N3CCc4ccccc43)ccc21`, the z-score was 0.0327.

The compound `Cc1cccc(NC(=O)c2ccoc2C)n1` showed a z-score of 2.35.

Regarding `COc1ccc(-n2c(SCc3ccc(C#N)cc3)nnc2-c2ccccn2)cc1`, the z-score came out at 0.181.

`COc1ccc(Nc2ccc(Cl)cc2)c(C(=O)O)c1` displayed a z-score of -0.637.

The compound `N#Cc1c(C(F)(F)F)cc(-c2ccco2)nc1SCc1ccccn1` gave a z-score of -0.0872.

`CCOC(=O)CCCSc1nnc(CCCCCN2C(=O)c3cccc4cccc(c34)C2=O)o1` showed a z-score of -1.11.

On to `COc1ccc(S(=O)(=O)N2CC(O)CC2C(=O)OCC(=O)Nc2ccc(Cl)cn2)cc1` (stereo not drawn), for which the z-score was found to be 0.891.

With `COc1ccccc1CNC(=O)c1cnccn1`, the z-score is -0.181.

`COc1ccc(OCC(O)CN(CCO)CC(O)Cn2ccc3ccccc32)cc1` (stereo not drawn) had a z-score of -0.128.

As to `CCn1c(SCC(=O)N/N=C/c2ccc(C)o2)nnc1-c1ccccc1`, the z-score came out at 0.156.

In turn, `Cc1ccc(S(=O)(=O)N(C)C)cc1NC(=S)NC12CC3CC(CC(C3)C1)C2` yielded a z-score of 0.0243.

The compound `COc1ccc(-c2nc(=S)c3c([nH]2)Oc2ccc(C)cc2C3)cc1O` gave a z-score of 0.755.

Turning to `COc1ccc(CN(Cc2cccnc2)C(=S)NCCc2ccccc2)cc1OC`, the z-score is -1.03.

`Cc1cc(C(=O)NC(C)c2ccncc2)cs1` (stereo not drawn) displayed a z-score of 2.05.

With `O=C(Nc1cccc2ccccc12)c1ccc(OC(=S)N2CCOCC2)cc1`, the z-score was -0.204.

Compound `COc1ccc(OC)c(NC(=O)C2CCN(S(C)(=O)=O)CC2)c1` returned a z-score of -0.441.

Regarding `c1ccc2c(c1)nc(NC1CCCCC1)c1nncn12`, the z-score came to 0.0884.

In turn, `Cc1cccc(Oc2ccc(N)cc2)c1` had a z-score of -0.0211.

In the case of `N#C/C(=C\c1sc(N2CCOCC2)nc1-c1ccccc1)C(=O)Nc1cccc2ccccc12`, the z-score was active: -3.04.

`C=CCn1c(SCc2nnc(-c3ccccc3)o2)nnc1C(O)c1ccccc1` (stereo not drawn) displayed a z-score of 0.141.

Compound `Nc1nc(NCCCN2CCOCC2)nc(Nc2ccc(F)cc2)c1[N+](=O)[O-]` gave a z-score of -0.105.

As to `CNCc1cn2cc(Cl)ccc2n1`, the z-score was -0.33.

Take `Cn1c(=O)c2c(nc(Br)n2CCSc2ncccn2)n(C)c1=O`: the z-score was -0.0624.

With `C=CCOc1c2ccc(C(=O)NC3CCCc4ccccc43)cc2nn1C` (stereo not drawn), the z-score is -0.212.

Compound `COc1ccc(CCNC(=O)C2CCN(C(=O)N(C)C)CC2)cc1OC` gave a z-score of 0.665.

Compound `Cc1ccccc1NC(=O)CSCCO` gave a z-score of 0.29.

In the case of `COc1ccccc1-c1coc2cc(O)cc(O)c2c1=O`, the z-score is -0.515.

The compound `COCCN(C(=O)CSc1nnc(C)n1-c1ccccc1)c1c(N)n(Cc2ccccc2)c(=O)[nH]c1=O` showed a z-score of -0.00751.
